From the RNAGym collection of RNA variant scans (doi:10.1093/nar/gkz1192)
Read counts are not given, so values of variants with three or more changes are uncertain.

B1: CPEB3 Ribozyme (parent)
chain: UAACAGGGGGCCACAGCAGAAGCGUUCACGUCGCAGCCCCUGUCAGAUUCUGGUGAAUCUGCGAAUUCUGCUGUAUAUCUC

Variants of: B1
Test: self-cleavage, relative activity (ratio to wild type); higher = more cleavage; in vitro, sequencing
Summary of the method: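 CPEB3 self-cleaving ribozyme mutant libraries were made by rounds of error-prone PCR, barcoded, and transcribed in vitro with T7 RNA polymerase for 5 hours at 37°C. Cleavage occurred during transcription and a 15 min DNase I step before EDTA stop. RNAs were reverse transcribed with template switching and Illumina-sequenced, with DNA sequencing mapping barcodes to variants. Relative activity is the variant's cleaved/total read fraction divided by wild type's (minimum 5 reads), averaged across three batches.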

Variant	self-cleavage
A18G A21G G42U U51C U54A	0.07
A18G A35U U60A U67A	0.12
A18G A21U A28G A64G C79A	0.11
A18G A47G C62U A64G U66C U80A	0.17
A18G A45U U51C U58C A64U	0.19
A18G A28G G30A	0.42
A18G A35G U58A A77U	0.54
A18G A35G U41A U69C A75U	0.47
A18G A35G U54A U67C A77C U80A	0.34
A18G A35G U41C A45U A56G U72C U80C	0.26
A18G A28U U54A A64U U78C	0.23
A18G A35U U49C	0.13
A18G A21G U67A U78C	0.17
A18G A28G U60C C62A	0.07
A18G A21G U80C	0.54
A18G A47U C71U	0.12
A18G A47G U60A U72C	0.2
A18G A21G U51C A57U	0.14
A18G A28G U67A U72C	0.21
A18G A21G U72C U80C	0.25
A18G A21G U26C A28U A65G	0.17
A18G A45U A56G	0.23
A18G A35U U48C A64G U69A	0.06
A18G A28G A64G A77G	0.14

Variant	self-cleavage
A18G A21G U25A C29U U67C	0.09
A18G A21G U49C C68U	0.09
A18G A21G U54C A64U U74C	0.19
A18G A47G A56U A57G	0.21
A18G A28G A35G A56G	0.27
A18G A28G U41G U78C	0.26
A18G A28G G42U	0.23
A18G A45G A77G	0.47
A18G A28G C62U	0.33
A18G A35G U60C U78A	0.55
A18G A47G U51C U67C C71U U78C U80C	0.23
A18G A21U U51G A57G U72A	0.06
A18G A21U U41A U69C	0.42
A18G A21G C39U G52A A57G U69C	0.36
A18G A28C A35G	0.42
A18G A21G U74C U76C	0.55
A18G A28G U72A	0.22
A18G A21G U26C U49A U51A G73C	0.05
A18G A35G U41G A65G U69C	0.31
A18G A47G U49A	0.28
A18G A47G A65G	0.28
A18G A35U G46U U58A	0.15
A18G A45G A47G	0.2
A18G A21G U25A U48C	0.31

Variant	self-cleavage
A18G A21G C44A A45G U72C U80C	0.44
A18G A35G U67A	0.39
A18G A28U U41C U54C U58A U67C U72A	0.11
A18G A45C A65G U72A	0.14
A18G A47G U51A U72C U78C	0.72
A18G A28G A35U A45U U51A U60C U72A	0.06
A18G A47G A64G	0.37
A18G A45G C62G	0.25
A18G A35G U49C A56U U69G	0.27
A18G A21U U58A	0.07
A18G A28U G33C A56C U72A	0.11
A18G A35G A45G U54C	0.5
A18G A47G U60C U72A	0.08
A18G A45U U60A U74C	1
A18G A35U U51A A56U C62U	0.12
A18G A45G A65G U67A A77G	0.25
A18G A45U U48C	0.1
A18G A21G U41C A45G U66C U69A	0.26
A18G A28C A35G A47G U48C U74C	0.1
A18G A45G A57G	0.49
A18G A28G A35G C39U U41A U78C	0.05
A18G A45G U58C U60C	0.24
A18G A28G A56U	0.18
A18G A21U U26C U80C	0.46

Variant	self-cleavage
A18G A35G U48A U58C U66C	0.06
A18G A21G U26C U69A	0.07
A18G A45G U60A U72A U78C	0.15
A18G A21G U31A U67A	0.07
A18G A21G U54G U66C G70C U76A	0.08
A18G A28G U31C C34U U49C U67G U74C	0.16
A18G A21G U58C U69C C81G	0.45
A18G A21G C29U U31C U43C A56U U60C	0.03
A18G A21U A45C A56G	0.05
A18G A35G U51C U54C	1.18
A18G A28C C37U U60C U78C	0.11
A18G A28U A35G U41A A45G U69C	0.18
A18G A35G U80G	1.25
A18G A45G U51A A65U U72A A77U U78C	0.28
A18G A21G G30A	0.59
A18G A45G U72C	0.39
A18G A28C G33A U48C A65U	0.07
A18G A21G U54C U74C	0.14
A18G A45U A57U C62U	0.08
A18G A45U U58C U69C	0.11
A18G A28G A45G U72C	0.79
A18G A28G A64G U74C	0.27
A18G A35G U54C A56U G63A	0.4
A18G A45U A47G U72C	0.27

Variant	self-cleavage
A18G A21G U41A U43A A64G	0.06
A18G A28U U41A U51C U69C A77G	0.13
A18G A28G C34U U43C U49C A77U	0.04
A18G A28G A35U U43A A45U	0.09
A18G A35G U48A C59A U67C	0.1
A18G A45G U66C	0.17
A18G A28U U54A U78A	0.25
A18G A35U C40G	0.11
A18G A21G U58G A77G	0.37
A18G A45U U60C	0.22
A18G A21U A56G U60A U78C	0.12
A18G A35U A47G U69C	0.5
A18G A35G U51G C59A U67C U72C	0.13
A18G A28C A56G	0.14
A18G A47G A64G U69C	0.95
A18G A35G U49C	0.29
A18G A47G G70A U72C	0.17
A18G A35U A64G U69C	0.38
A18G A21G U31C G33A A56U U72A A75G	0.04
A18G A28U G33U U41C	0.13
A18G A45C U49C U67C	0.1
A18G A21G U41C U80A	0.57
A18G A45G U51C	0.16
A18G A45G U51G	0.47

Variant	self-cleavage
A18G A35G A45U	0.21
A18G A35U A45C	0.38
A18G A45C U69A	0.15
A18G A35U A47G A56G U80C	0.13
A18G A28G U41G G63C U74C U80C	0.48
A18G A21G C39U U48C U51A U76C	0.2
A18G A35G C37U U49C A56G A64G	1.17
A18G A28C C29G U67C	0.14
A18G A35U U76C A77C	0.13
A18G A28U A45U U48C U51C U72A	0.16
A18G A21G C32U U72C U78C	0.07
A18G A28G G63A U80C	0.23
A18G A28G G61U	0.14
A18G A35U U43C U60A	0.09
A18G A35G A65U	0.49
A18G A45G U58A U69A U80C	0.13
A18G A21G U25A A47G U54C A64G U69C	0.08
A18G A47U U58C A77U	0.13
A18G A45C A57G	0.16
A18G A21G U31C G33A	0.29
A18G A35G U69A U72A	0.28
A18G A28G A45G U51C A56G A77G U80C	0.33
A18G A45G U48C U76A	0.22
A18G A28G U49A U58C	0.07

Variant	self-cleavage
A18G A21G U69C	0.95
A18G A45G U49G G52U U78A	0.17
A18G A35G G46U A57G U58A	0.18
A18G A21G U25C G42U U51C	0.05
A18G A28G A35G A45U	0.19
A18G A28G U49A G55C U60C U72G	0.13
A18G A35C U51G A64U	0.17
A18G A47U U74C	0.12
A18G A35U A64G U67C	0.08
A18G A47G A75G A77C	0.48
A18G A35U A64G U66A	0.05
A18G A21U C40U U69C U78C	0.22
A18G A45G U48C	0.23
A18G A28G C37U U41A	0.22
A18G A47G U69C	1.2
A18G A35G A45U G70C	0.27
A18G A28C U41A	0.13
A18G A28C U41C	0.2
A18G A28U A35U	0.09
A18G A35G U48C	0.67
A18G A47G U67C U72C	0.11
A18G A45U A77G	0.27
A18G A21U A56G U78C	0.19
